In PubChem BioAssay AID504339 (National Center for Advancing Translational Sciences (NCATS), 2011):
Out of some 390,000 compounds screened, about 17,000 (4.4%) were called active. The inconclusive results got no clear call from the source; some entries with a clear call stand among them for comparison. Calls follow the shape of the dose curve; as a rule, active = well fitted inhibition curve with a large enough effect; inconclusive = small, poorly fitted or top-dose-only effect; inactive = no such curve, though single readings can be large or run the other way. Potencies beside an inconclusive call are fits to weak or partial responses and may not hold up.

These compounds were tested against Lysine-specific demethylase 4A (Homo sapiens) (UniProt O75164) (assay: qHTS Assay for Inhibitors of JMJD2A-Tudor Domain). Settings: AlphaScreen JMJD2A-Tudor / H3K4me3 peptide binding; activity change, negative = inhibition: at 114 µM (top of the series).
Sequence of UniProt O75164 (O75164 whole entry, looked up, the tested form may be a part): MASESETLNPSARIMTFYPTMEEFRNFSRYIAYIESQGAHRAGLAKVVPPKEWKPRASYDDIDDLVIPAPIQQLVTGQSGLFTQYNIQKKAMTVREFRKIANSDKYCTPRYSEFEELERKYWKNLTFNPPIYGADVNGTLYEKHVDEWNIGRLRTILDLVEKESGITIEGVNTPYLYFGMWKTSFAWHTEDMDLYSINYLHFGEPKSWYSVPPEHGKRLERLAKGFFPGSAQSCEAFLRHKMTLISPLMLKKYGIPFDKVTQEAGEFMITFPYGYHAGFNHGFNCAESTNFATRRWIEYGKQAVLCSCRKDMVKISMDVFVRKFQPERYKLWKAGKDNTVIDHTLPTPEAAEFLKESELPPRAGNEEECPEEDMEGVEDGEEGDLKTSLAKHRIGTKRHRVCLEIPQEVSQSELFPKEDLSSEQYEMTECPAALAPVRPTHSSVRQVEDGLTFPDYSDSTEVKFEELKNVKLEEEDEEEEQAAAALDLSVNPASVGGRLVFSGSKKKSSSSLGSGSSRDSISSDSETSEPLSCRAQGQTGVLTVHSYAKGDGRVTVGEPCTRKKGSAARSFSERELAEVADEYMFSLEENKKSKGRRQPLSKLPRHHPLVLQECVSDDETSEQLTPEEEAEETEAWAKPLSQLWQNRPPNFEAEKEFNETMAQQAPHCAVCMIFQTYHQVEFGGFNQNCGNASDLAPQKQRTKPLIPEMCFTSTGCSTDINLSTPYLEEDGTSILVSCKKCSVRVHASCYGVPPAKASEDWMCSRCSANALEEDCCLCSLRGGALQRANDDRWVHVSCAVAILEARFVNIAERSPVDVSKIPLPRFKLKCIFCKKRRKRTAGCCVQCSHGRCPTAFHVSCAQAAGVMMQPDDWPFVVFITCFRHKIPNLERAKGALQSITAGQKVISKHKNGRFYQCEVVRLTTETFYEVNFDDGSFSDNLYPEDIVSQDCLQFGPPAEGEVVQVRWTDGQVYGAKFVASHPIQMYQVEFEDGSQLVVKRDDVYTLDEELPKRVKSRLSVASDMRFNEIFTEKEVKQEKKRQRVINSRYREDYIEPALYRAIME
% is scaled to controls: 0 for no effect and ±100 for the full control effect; potency is read from the fitted curve at half-maximal effect; tags tell the direction and shape of the fitted curve.
Also: nearly all actives have a fitted effect of over 50% in size.

Structure (SMILES) | activity change, negative = inhibition | Potency
N#Cc1nc(-c2cccs2)oc1NCC1CCCO1 (centres undefined) | inactive: -13.8% | –
CCOC(=O)N1CCN(CC(=O)Nc2nc3ccccc3s2)CC1 | – | inconclusive: 14.1 µM [inhibitor, partial curve]
Cc1ccc(CNCc2ccccc2)s1 | inactive: -5.6% | –
COCC(C)N1CCC(Oc2ccc(C(=O)N3CCCC3)cc2)CC1 (centres undefined) | inactive: -13.1% | –
Nc1nc(=S)c2ncn([C@@H]3O[C@H](CO)[C@@H](O)[C@H]3O)c2[nH]1 | – | active: 5.01 µM
CCOC(=O)C(=NC(C)(C)C)NNc1cc(Cl)ccc1Cl | – | inconclusive: 39.8 µM [inhibitor, single point]
CCOc1ccc(CCNC(=O)c2cc3c(s2)-c2ccccc2OC3)cc1OCC | – | inconclusive: 100 µM [inhibitor, partial curve]
Cc1occc1C(=O)NNS(=O)(=O)c1ccc([N+](=O)[O-])cc1 | – | inconclusive: 22.4 µM [inhibitor, partial curve]
O=C(NCc1cccnc1)c1ccc2c(c1)N(Cc1ccccc1)CCS2 | – | inconclusive: 89.1 µM [inhibitor, partial curve]
CCCc1c(C)nn(-c2ncccc2[N+](=O)[O-])c1C | inactive: -1.41% | –
CC[n+]1c(C)cc(C)n1-c1ccccc1 | – | inconclusive: 39.8 µM [inhibitor, single point]
Cc1ccc(S(=O)(=O)Nc2ccc(C(N)=O)cc2)cc1[N+](=O)[O-] | – | inconclusive: 25.1 µM [inhibitor, full curve]
Cc1csc2nc(O)c(C(=O)NC3CCCCC3C)c(=O)n12 (centres undefined) | – | inconclusive: 35.5 µM [inhibitor, single point]
CCOc1ccc(-c2nnc3ccc(SCC(=O)NCc4ccco4)nn23)cc1 | – | inconclusive: 56.2 µM [inhibitor, partial curve]
O=S(=O)(NC1CC1)c1ccc(S(=O)(=O)N2CCC3(CC2)OCCO3)cc1 | – | inconclusive: 89.1 µM [inhibitor, single point]
Cc1cc(C)c(C(=O)COC(=O)c2cc([N+](=O)[O-])ccc2NCCO)cc1C | inactive: -22.1% | –
COc1ccc2oc(=O)c(-c3csc(Nc4ccc(O)cc4)n3)cc2c1 | inactive: -21.5% | –
S=C(NCCN1CCOCC1)N1CCN(c2cccc(Cl)c2)CC1 | – | active: 8.91 µM
CC[n+]1c(/C=C/c2ccc(OC)c(OC)c2)ccc2ccccc21 | – | inconclusive: 39.8 µM [inhibitor, single point]
Cc1cc(C(=O)CSc2nnc(NCc3ccccc3)s2)c(C)n1C | – | inconclusive: 56.2 µM [inhibitor, partial curve]
CCOC(=O)C1=C(CN2CCN(c3ccccc3F)CC2)NC(=O)NC1c1ccc(Cl)cc1 (centres undefined) | – | inconclusive: 28.2 µM [inhibitor, full curve, poor fit]
CCOC(=O)c1ccccc1N1C(=O)C2Sc3[nH]c(=O)sc3C(/C=C/c3ccccc3)C2C1=O (centres undefined) | – | inconclusive: 56.2 µM [inhibitor, partial curve]

Structure (SMILES) | activity change, negative = inhibition | Potency
COC(=O)c1scc(-c2ccc(C)cc2)c1S(=O)(=O)Nc1ccc(N(C)C)cc1 | – | inconclusive: 10 µM [inhibitor, full curve]
Cc1ccc(S(=O)(=O)/C(C#N)=C/c2c(N3CCN(C)CC3)nc3c(C)cccn3c2=O)cc1 | – | inconclusive: 56.2 µM [inhibitor, partial curve]
Cc1nn(C(C)C(=O)N2CCOCC2)c(=O)c2nn(-c3ccccc3)c(C)c12 (centres undefined) | – | inconclusive: 70.8 µM [inhibitor, partial curve]
CCN(CCCNC(=O)CCc1nc(-c2ccc(OC)cc2)no1)c1cccc(C)c1 | – | inconclusive: 44.7 µM [inhibitor, partial curve]
CCOC(=O)c1c(C)[nH]c(C2=NNC(=Nc3ccccc3OC)SC2)c1C | – | active: 50.1 µM
O=C(Nc1c(-c2ccc(F)cc2)nc2ccccn12)c1ccccc1F | inactive: 2.73% | –
COc1ccccc1C=NN=C(NN=Cc1ccccc1OC)NN=Cc1ccccc1OC | – | inconclusive: 79.4 µM [inhibitor, partial curve]
COc1ccc(/C=C2\SC(=O)N(CC(=O)NCCCn3ccnc3)C2=O)cc1 | inactive: -33.8% | –
O=C(/C=C\c1ccc2c(c1)OCO2)NC1CC(=O)N(c2cccc(F)c2)C1 (centres undefined) | inactive: 1.95% | –
COc1cc(/C=N/NC(=O)CCN2CCN(C(c3ccccc3)c3ccccc3)CC2)ccc1O | – | inconclusive: 56.2 µM [inhibitor, partial curve]
COc1ccc(N2CCN(C(=O)c3ccc(-c4nc5ccccc5s4)o3)CC2)cc1 | – | inconclusive: 39.8 µM [inhibitor, partial curve, poor fit]
CCC1=[N+](CC(=O)c2ccc(Br)cc2)CCn2c(C)ccc21 | – | inconclusive: 56.2 µM [inhibitor, partial curve, poor fit]
CCOc1ccc(N/C(SCc2cccc([N+](=O)[O-])c2)=C(/C#N)C(N)=O)cc1 | – | inconclusive: 35.5 µM [inhibitor, full curve]
COc1ccc2nc(C)cc(N3CCN(c4ccccc4)CC3)c2c1 | – | inconclusive: 50.1 µM [inhibitor, partial curve]
CCCCCc1cc(=O)oc2c(C(CCN3CCCC(C)C3)c3ccc(N(C)C)cc3)c(OC)cc(OC)c12 (centres undefined) | – | active: 25.1 µM
COc1ccc(OC)c(Nc2nc(-c3c(C)nc4ncccn34)cs2)c1 | – | inconclusive: 50.1 µM [inhibitor, partial curve]
COc1ccc(S(=O)(=O)Nc2cccc(S(=O)(=O)N(C)C)c2)cc1[N+](=O)[O-] | inactive: -22.1% | –
CCCN1C2=C(C(=O)CC(C)(C)C2)C(c2ccc(F)cc2)C2=C1c1ccccc1C2=O (centres undefined) | inactive: -29.6% | –
COc1ccc(C=NN=C2c3ccccc3-c3ccccc32)cc1OC | – | active: 12.6 µM
CCOC(=O)[C@H]1[C@H]2COc3cc(OC)ccc3[C@@H]2N2C(=O)CN(Cc3ccc(C)cc3)C(=O)[C@@]12C | inactive: -22.8% | –
CCC(CC)COC(=O)C(C#N)c1nc2ccccc2nc1N1CCN(CC)CC1 (centres undefined) | – | inconclusive: 56.2 µM [inhibitor, partial curve]
COCCCNCCCCOc1ccc(C)cc1[N+](=O)[O-] | – | active: 5.62 µM
